Data: the supplement of paper PMC4604168 (melanoma cell lines)
The list shows a part of the results. Repeats are few or missing, and single values can be far off.

What was measured:
Experiment in all cases: cell count relative to DMSO control; melanoma cells; higher = more viable cells
Conditions in all cases: library dose: standard library concentration; 72 h
[1] = test system: G361
[2] = test system: IPC-298
[3] = test system: IST-MEL1
[4] = test system: LB2518-MEL
[5] = test system: LOXIMVI
[6] = test system: MEL-HO
[7] = test system: MZ2-MEL
[8] = test system: MeWo
[9] = test system: RPMI7951
[10] = test system: RVH-421
[11] = test system: SkMel28
[12] = test system: SkMel2
[13] = test system: SkMel30
[14] = test system: SkMel5
[15] = test system: UACC257
[16] = test system: UACC62
[17] = test system: WM115
[18] = test system: WM1716
[19] = test system: WM1745
[20] = test system: WM3526
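Note: cells treated in 1,536-well plates, then fixed and DAPI-stained, with nuclei counted from automated high-throughput microscope images.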

SMILES | cell count [1] [%] | cell count [2] [%] | cell count [3] [%] | cell count [4] [%] | cell count [5] [%] | cell count [6] [%] | cell count [7] [%] | cell count [8] [%] | cell count [9] [%] | cell count [10] [%] | cell count [11] [%] | cell count [12] [%] | cell count [13] [%] | cell count [14] [%] | cell count [15] [%] | cell count [16] [%] | cell count [17] [%] | cell count [18] [%] | cell count [19] [%] | cell count [20] [%]
CC1(C)NC(=O)N(c2ccc([N+](=O)[O-])c(C(F)(F)F)c2)C1=O [nilutamide] + Cc1ccc(NC(=O)c2cccc(N(C)C)c2)cc1NC(=O)c1ccc(O)cc1 [ZM336372] (first compound 5 µM, partner dose 10 µM) | 87.7 | 97.1 | 80.2 | 99.5 | 103 | 93.7 | 90.1 | 84.8 | 67 | 94.2 | 105 | 100 | 93.9 | 92.1 | 74.6 | 114 | 92 | 100 | 75.4 | 111
O=c1[nH]nc(Sc2ncc([N+](=O)[O-])s2)n1-c1ccc2c(c1)OCCO2 + Clc1ccc(Nc2nnc(Cc3ccncc3)c3ccccc23)cc1 [vatalanib] (first compound 1 µM, partner dose 10 µM) | 73.5 | 62 | 78.3 | 77.6 | 63.1 | 67.8 | 72.4 | 66.1 | 66.1 | 55.9 | 76.8 | 64 | 88.3 | 47.1 | 66 | 56 | 68.3 | 70 | 44.9 | 87.3
O=C(Nc1cccc(Cl)c1)Nc1ncc(CCNc2ncnc3ccsc23)s1 + Cc1cc([N+](=O)[O-])ccc1NS(=O)(=O)c1cc(Cl)ccc1Cl [FH535] (first compound 0.004 µM, partner dose 5 µM) | 42.8 | 46.6 | 47 | 77.7 | 79.7 | 45.7 | 54.7 | 62.1 | 71.5 | 60.2 | 44.1 | 54.7 | 84.4 | 69.8 | 65.7 | 64.5 | 39 | 73 | 74.3 | 74.7
O=C(O)c1ccc(-c2c[nH]c3ncc(-c4ccccc4)cc23)cc1C1CCCC1 + Cc1cc([N+](=O)[O-])ccc1NS(=O)(=O)c1cc(Cl)ccc1Cl [FH535] (first compound 0.8 µM, partner dose 5 µM) | 35.1 | 51.1 | 42.6 | 77.8 | 70.6 | 48.3 | 54.8 | 79.2 | 72 | 66.2 | 58.3 | 62.6 | 89.5 | 56.7 | 64.5 | 115 | 87.3 | 68.6 | 80.3 | 76.8
O=c1[nH]nc(Sc2ncc([N+](=O)[O-])s2)n1-c1ccc2c(c1)OCCO2 + O=C(CCCCCCC(=O)Nc1ccccc1)NO [vorinostat] (first compound 1 µM, partner dose 0.4 µM) | 70 | 102 | 110 | 86.8 | 57.7 | 94.8 | 113 | 87.4 | 65.1 | 99.2 | 75 | 103 | 101 | 65 | 79 | 77.6 | 86.6 | 86.3 | 100 | 101
O=c1[nH]nc(Sc2ncc([N+](=O)[O-])s2)n1-c1ccc2c(c1)OCCO2 + COc1ccc(C2=N[C@@H](c3ccc(Cl)cc3)[C@@H](c3ccc(Cl)cc3)N2C(=O)N2CCNC(=O)C2)c(OC(C)C)c1 [Nutlin-3] (first compound 1 µM, partner dose 0.5 µM) | 82.3 | 99.5 | 85.2 | 70.7 | 71.7 | 111 | 107 | 106 | 136 | 181 | 53.8 | 108 | 90 | 75.2 | 92.7 | 79.3 | 54.1 | 88 | 67.8 | 96
COc1cc(Nc2ncc(F)c(Nc3ccc4c(n3)NC(=O)C(C)(C)O4)n2)cc(OC)c1OC [Tamatinib] + CN(C)S(=O)(=O)c1ccc2c(c1)/C(=C/c1cc3c([nH]1)CCCC3)C(=O)N2 [SU6656] (first compound 2 µM, partner dose 2 µM) | 55.4 | 57.3 | 17.7 | 62.5 | 26.8 | 69.3 | 64.4 | 54.8 | 23.3 | 40.3 | 35.1 | 58.5 | 66.1 | 33.5 | 55 | 57.1 | 30.2 | 36.7 | 32.4 | 56.9
O=c1[nH]nc(Sc2ncc([N+](=O)[O-])s2)n1-c1ccc2c(c1)OCCO2 + Nc1ncn([C@H]2C[C@H](O)[C@@H](CO)O2)c(=O)n1 [decitabine] (first compound 1 µM, partner dose 0.5 µM) | 73.1 | 60.9 | 70.3 | 87.1 | 45.8 | 66.5 | 69.6 | 55.3 | 71.4 | 76.9 | 102 | 91.1 | 84.6 | 66.4 | 96.5 | 54.4 | 72.6 | 75.8 | 77.8 | 71.8
COc1cc(Nc2ncc(F)c(Nc3ccc4c(n3)NC(=O)C(C)(C)O4)n2)cc(OC)c1OC [Tamatinib] + O=C(O)C(=O)Nc1sc2c(c1C(=O)O)CCNC2 [TCS401] (first compound 2 µM, partner dose 8.33333 µM) | 72.8 | 92 | 81.5 | 127 | 46.2 | 87.1 | 81.4 | 78.3 | 72.7 | 67 | 83 | 87.4 | 90 | 51.4 | 82.9 | 104 | 87.9 | 55.1 | 41.4 | 79.6
O=C(O)c1ccc(-c2c[nH]c3ncc(-c4ccccc4)cc23)cc1C1CCCC1 + O=c1cc(-c2cccc3c2Sc2ccccc2S3)oc(N2CCOCC2)c1 [KU55933] (first compound 0.8 µM, partner dose 5 µM) | 60.1 | 78.9 | 79.9 | 41.7 | 96.2 | 83.1 | 78.3 | 88.1 | 68.2 | 104 | 58 | 72.1 | 115 | 97.5 | 95.4 | 106 | 102 | 85.6 | 83.9 | 79.2
Cn1cncc1[C@@](N)(c1ccc(Cl)cc1)c1ccc2c(c1)c(-c1cccc(Cl)c1)cc(=O)n2C [tipifarnib] + O=S(=O)(c1ccccc1)N(CC(F)(F)F)c1ccc(C(O)(C(F)(F)F)C(F)(F)F)cc1 [T0901317] (first compound 0.05 µM, partner dose 7 µM) | 75.1 | 72.7 | 107 | 69 | 103 | 85.9 | 92.1 | 78.8 | 79.7 | 23.1 | 61.9 | 73.8 | 92.5 | 64.3 | 99.6 | 79.6 | 84.5 | 86.7 | 79.8 | 60.4
Cn1cncc1[C@@](N)(c1ccc(Cl)cc1)c1ccc2c(c1)c(-c1cccc(Cl)c1)cc(=O)n2C [tipifarnib] + c1cc(-c2cnn3cc(-c4ccc(OCCN5CCCCC5)cc4)cnc23)ccn1 [Dorsomorphin] (first compound 0.05 µM, partner dose 2 µM) | 53.9 | 79.3 | 91 | 75 | 237 | 87.8 | 74 | 59.8 | 67.2 | 68.3 | 57.7 | 65.9 | 83.5 | 44.1 | 71.1 | 59.4 | 40.2 | 51.9 | 56.6 | 59.3
O=C(Nc1cccc(Cl)c1)Nc1ncc(CCNc2ncnc3ccsc23)s1 + O=S(=O)(c1ccccc1)N(CC(F)(F)F)c1ccc(C(O)(C(F)(F)F)C(F)(F)F)cc1 [T0901317] (first compound 0.004 µM, partner dose 7 µM) | 53.9 | 55.1 | 51.3 | 73 | 85.6 | 77.9 | 62.7 | 69.6 | 52.2 | 58.6 | 44 | 53.2 | 76.1 | 73.6 | 58 | 79.8 | 40.9 | 40.8 | 66.4 | 62.5
O=c1[nH]nc(Sc2ncc([N+](=O)[O-])s2)n1-c1ccc2c(c1)OCCO2 + CC(C)C[C@H](NC(=O)[C@H](Cc1ccccc1)NC(=O)c1cnccn1)B(O)O [Bortezomib] (first compound 1 µM, partner dose 0.005 µM) | 2.64 | 10.1 | 13.3 | 3.4 | 15.9 | 35.9 | 4.56 | 16.5 | 3.22 | 14.2 | 27.2 | 54 | 33.5 | 27 | 90.2 | 58.1 | 17.4 | 16 | 19.6 | 27.2
O=C(Nc1cccc(Cl)c1)Nc1ncc(CCNc2ncnc3ccsc23)s1 + N#Cc1c(O)c2c(-c3ccc(-c4ccccc4O)cc3)csc2[nH]c1=O [A769662] (first compound 0.004 µM, partner dose 10 µM) | 67 | 85 | 64.4 | 90.6 | 81.6 | 74.1 | 72.1 | 44.1 | 60.6 | 91.6 | 40.9 | 94.4 | 82.7 | 73.6 | 80.1 | 73.9 | 31.3 | 50.4 | 67.8 | 55.3
Cn1cncc1[C@@](N)(c1ccc(Cl)cc1)c1ccc2c(c1)c(-c1cccc(Cl)c1)cc(=O)n2C [tipifarnib] + COc1cc(N2CCC(N3CCN(C)CC3)CC2)ccc1Nc1ncc(Cl)c(Nc2ccccc2S(=O)(=O)C(C)C)n1 [NVP-TAE684] (first compound 0.05 µM, partner dose 0.4 µM) | 60.7 | 68 | 84 | 57 | 144 | 81.8 | 70.2 | 60.8 | 44.6 | 73.7 | 52.4 | 47.9 | 88.8 | 66.8 | 81.4 | 62.3 | 45.6 | 62 | 49 | 49.5
